According to PubChem BioAssay AID2107 (National Center for Advancing Translational Sciences (NCATS), 2009):
Values joined by “and” are separate entries in the source; they are usually repeats but may differ in a detail not shown here. Equal entries are not always repeated. Hit rate of the full screen: of about 240,000 compounds, about 20 (0.008%) were called active. The shares of active, inactive and inconclusive entries below differ from those in the screen. The call rests on the fitted dose curve; in most records, active means well fitted inhibition curve with a large enough effect; inconclusive means small, poorly fitted or top-dose-only effect, or effect the other way; inactive means flat fitted curve, though single readings scatter. Potencies of inconclusive entries are doubtful fits and often do not repeat.

The compounds below were run against Alpha-galactosidase A (Homo sapiens) (UniProt P06280) (assay: qHTS Assay for Inhibitors and Activators of Human alpha-Galactosidase From Spleen Homogenate). Conditions: 4MU-alpha-Gal fluorescence, 40 min; activity change, negative = inhibition: at 80 µM (top of the series).
Description: NIH Chemical Genomics Center [NCGC] NIH Molecular Libraries Probe Production Centers Network [MLPCN] MLPCN Grant: R03 MH084842-01 Assay Submitter (PI): Wei Zheng NCGC Assay Overview: Alpha-galactosidase is a homodimeric glycoprotein that hydrolyzes the terminal alpha-galactosyl moieties from glycolipids and glycoproteins. Deficiency of this enzyme results in Fabry Disease with progressive accumulation of globotriaosylceramide and other glycosphingolipids in vascular endothelial cells that causes renal failure, myocardial infarction and stroke, and premature death in patients. It has been reported that the improper folding and trafficking of alpha-galactosidase resulting from genetic mutations may account for a significant number of Fabry patients. […] We optimized this alpha-galactosidase assay in 1536-well plate format for identification of novel small molecule inhibitors or activators with structures other than the sugar analogs in order to develop new pharmacological chaperones. In particular, this assay is directed towards discovering compounds active in more natural setting, tissue homogenate, that may have been missed by screens of the purified enzyme under more stringent conditions.
NCGC Assay Protocol Summary: This is a fluorogenic enzyme assay with 4-methylumbelliferyl-alpha-D-galactopyranoside as the substrate and human spleen homogenate containing alpha-galactosidase as the enzyme preparation. Upon hydrolysis of this fluorogenic substrate, the resulting product, 4-methylumbelliferone (which excites at 365 nm and emits at 440 nm) can be detected by a fluorescence plate reader. Data were normalized to the controls for basal activity (without enzyme) and 100% activity (with enzyme). The AC50 values were determined from concentration-response data modeled with the standard Hill equation. Assay buffer: 50 mM citric acid (titrated with potassium phosphate to pH 5.0), 0.01% Tween-20 (pH 5.0 is an optimal condition for this enzyme assay) 1536-well assay protocol for the alpha-galactosidase from human spleen homogenate: (1) Add 2 ul/well spleen homogenate (1 ug) (2) Add 23 nL compounds in DMSO solution. The final titration was 0.5 nM to 58 uM. (3) Add 2 ul of substrate (1 mM final) (4) Incubate at 37C for 40 min (5) Add 2 ul stop solution (1M NaOH and 1M Glycine mixture, pH 10) (6) Detect the assay plate in a ViewLux plate reader (PerkinElmer) with Ex=365 nm and Em=440nm. Keywords: Alpha-galactosidase, Fabry Disease, pharmacological chaperone, chaperone therapy, high throughput screening, alpha- galactosidase inhibitor, MLSMR, MLSCN, NIH Roadmap, qHTS and NCGC
Potency means the concentration at half of the fitted maximal effect; tags describe the fitted curve by direction and shape.
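Wherever activity change, negative = inhibition is given: 0% = enzyme with vehicle and -100% = no enzyme basal signal.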

Chain of UniProt P06280 (P06280 whole entry, looked up): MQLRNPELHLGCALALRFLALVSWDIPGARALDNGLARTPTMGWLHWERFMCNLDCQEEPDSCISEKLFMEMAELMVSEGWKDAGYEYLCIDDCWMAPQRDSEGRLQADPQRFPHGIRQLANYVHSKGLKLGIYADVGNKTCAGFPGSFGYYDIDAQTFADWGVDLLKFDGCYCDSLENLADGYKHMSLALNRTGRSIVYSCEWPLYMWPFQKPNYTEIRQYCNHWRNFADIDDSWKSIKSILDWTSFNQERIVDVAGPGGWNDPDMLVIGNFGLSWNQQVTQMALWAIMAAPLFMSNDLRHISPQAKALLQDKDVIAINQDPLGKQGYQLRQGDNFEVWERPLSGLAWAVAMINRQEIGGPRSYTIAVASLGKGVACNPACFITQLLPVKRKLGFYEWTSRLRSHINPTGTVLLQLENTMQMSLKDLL

| SMILES | Potency | activity change, negative = inhibition |
| --- | --- | --- |
| Nc1ccc2nc(-c3ccccc3)[nH]c2c1 | inconclusive: 39.8 µM [activator, partial curve] |  |
| Cc1nc(NC(N)=S)sc1C(=O)Nc1ccccc1 | inactive |  |
| CO[C@H]1COC(=O)[C@H](C)NC(=O)[C@@H](C)COC(=O)C/C=C\[C@@H]1C |  | inactive: 0.393% [at 17.5 µM] |
| CCNc1ncc2nc(-c3ccccc3)c(=O)n(C)c2n1 | inconclusive: 39.8 µM [activator, partial curve] |  |
| COc1ccc(C2(O)CC3CCC(C2)N3c2cc(C)nc(-c3ccccc3)n2)cc1 (stereo unspecified) | inconclusive: 7.94 µM [inhibitor, full curve, poor fit] |  |
| CN(Cc1ccccc1)C(=O)CCNC(=O)Cn1cnc2ccccc2c1=O | inconclusive: 11.2 µM [activator, single point] |  |
| CCN(CC)c1ccc2c(C)cc(=O)oc2c1 | inconclusive: 44.7 µM [activator, partial curve] |  |
| CCOC(=O)c1ccc(-c2c(C(=O)OCC)oc3cc(O)c(CC)cc3c2=O)o1 | inactive |  |
| CC(C)CCNC(=S)Nc1ccc([N+](=O)[O-])cc1 | inconclusive: 56.2 µM [inhibitor, partial curve, poor fit] |  |
| N#Cc1nc(-c2ccco2)oc1N1CCN(c2cccc(Cl)c2)CC1 | inactive |  |
| O=C(CCl)Nc1ccc(Oc2cnc3ccccc3n2)cc1 | inconclusive: 50.1 µM [activator, single point] |  |
| O=C1OC2(CCCCC2)OC(=O)C1=CNc1ccc2c(c1)OCO2 | inactive |  |
| CCOc1ccc(Nc2c3ccccc3nc3ccccc23)cc1 |  | inconclusive: 50.6% [activator] |
| CN1CCN(c2ncc3nc(-c4ccccc4)c(=O)n(Cc4cccs4)c3n2)CC1 | inconclusive: 31.6 µM [inhibitor, single point] |  |
| CCNc1ncc2nc(-c3cccs3)c(=O)n(CCC#N)c2n1 | inconclusive: 25.1 µM [activator, partial curve] |  |
| Nc1c(Cl)cc(Cl)cc1C(=O)OCC(=O)NC1CC1 | inconclusive: 31.6 µM [activator, single point] |  |
| O=C(Nc1ccccn1)c1cc(-c2cccnc2)nc2ccc(Br)cc12 | inconclusive: 35.5 µM [inhibitor, partial curve] |  |
| O=C(O/N=C\c1ccc(N2CCCCC2)c([N+](=O)[O-])c1)c1c(F)cccc1F | inactive |  |
| CC(C)(C)NC(=O)c1sccc1C(=O)O | inconclusive: 35.5 µM [activator, single point] |  |
| COC(=O)c1ccccc1SC1CC(=O)N(c2ccccc2)C1=O (stereo unspecified) | inactive |  |
| COc1ccc(S(=O)(=O)N(CC(=O)N2CCN(c3ccccc3OC)CC2)c2ccccc2)cc1 | inactive |  |

| SMILES | Potency | activity change, negative = inhibition |
| --- | --- | --- |
| CCN1CCN(CCCNC(=O)c2cn(CCOC)c(=O)c3c2c2ccccc2n3C)CC1 | inconclusive: 31.6 µM [activator, single point] |  |
| Cc1cc2oc(=O)cc(-c3ccccc3)c2c(C)c1-c1cccc(N)c1 | inactive |  |
| CCC(C)[C@@H](C(=O)Nc1ccc(OC)c(OC)c1)N1Cc2ccccc2C1=O (stereo partly specified) | inactive |  |
| CSc1nc2ccc(NS(=O)(=O)c3ccc(Cl)s3)cc2s1 | inactive |  |
| Cc1ccc2c(c1)Sc1ccccc1CC2=O | inactive |  |
| N#CCCn1c(=O)c(-c2cccc(C#N)c2)nc2cnc(Oc3cccc(Cl)c3)nc21 | inconclusive: 50.1 µM [activator, single point] |  |
| O=C(c1coc(=O)c(Br)c1)N1CCC(C(O)(c2ccccc2)c2ccccc2)CC1 | inconclusive: 35.5 µM [activator, partial curve] |  |
| COc1cc2nc(N(C)CCCNC(=O)C3CCCO3)nc(N)c2cc1OC (stereo unspecified) | inconclusive: 31.6 µM [activator, partial curve] and inconclusive: 28.2 µM [activator, partial curve] |  |
| Cc1cccc(NC(=O)c2cc(NC(=O)c3ccco3)ccc2Cl)n1 | inconclusive: 31.6 µM [inhibitor, partial curve] |  |
| CC(C)c1ccccc1NC(=S)NC1CCN(Cc2ccccc2)CC1 | inconclusive: 31.6 µM [inhibitor, single point] |  |
| Cc1c(CCC(=O)O)c(=O)n2c([nH]c3ccccc32)c1C#N | inconclusive: 35.5 µM [activator, partial curve] |  |
| CCOP(=O)(OCC)c1nc(/C=C/c2ccccc2)oc1NCc1ccccc1 | inconclusive: 35.5 µM [activator, partial curve] |  |
| O=C(O)/C=C/c1ccc(O)c(O)c1 | inconclusive: 50.1 µM [inhibitor, single point] |  |
| C=CCN(c1ccccc1)S(=O)(=O)c1cccc(C(=O)Oc2ccc3c(C)cc(=O)oc3c2)c1 | inconclusive: 28.2 µM [activator, partial curve] |  |
| COC(=O)CNC(=O)c1c(-c2c(Cl)cccc2Cl)noc1C | inconclusive: 50.1 µM [inhibitor, single point] |  |
| CCN(CC1COc2ccccc2O1)C(=S)NCCCN(C)C (stereo unspecified) | inconclusive: 31.6 µM [inhibitor, partial curve] |  |
| CCOC(=O)C1CCN(Cc2cc(C(C)C)c(O)c(C(C)C)c2)CC1 | inactive |  |
| CC(Sc1ccsc1[N+](=O)[O-])C(=O)NCCc1ccc(Cl)cc1 (stereo unspecified) | inactive |  |
| CN1CCN(Cc2c(O)ccc3cc(-c4ccccn4)c(=O)oc23)CC1 | inconclusive: 31.6 µM [activator, partial curve] |  |
| CC[C@H]1C(c2ccccc2)=NN(c2ccccc2)[C@@H]1CO | inconclusive: 35.5 µM [activator, partial curve] |  |
| CC1=CC=CC2=NC(=O)CC(C)(C(=O)N(CC(=O)NC(C)C)C3CCCC3)N12 (stereo unspecified) | inconclusive: 35.5 µM [activator, partial curve] |  |

| SMILES | Potency | activity change, negative = inhibition |
| --- | --- | --- |
| CSc1nnc(-c2cccn(Cc3ccccc3)c2=O)o1 | inconclusive: 31.6 µM [activator, partial curve] |  |
| COc1ccc(S(=O)(=O)/N=C2/NC(=O)/C(=C/c3ccco3)S2)cc1 | inactive |  |
| Cc1ccc(N(C)C(=O)c2ccc(CNc3c(N4CCC(C)CC4)c(=O)c3=O)cc2)cc1 | inconclusive: 44.7 µM [inhibitor, single point] |  |
| Cn1c(-c2ccco2)nc2cc3ccccc3cc21 | inconclusive: 3.16 µM [activator, partial curve, poor fit] |  |
| CC(=O)C1=C(C)NC(SCSc2ccccc2)=C(C#N)C1c1cccnc1 (stereo unspecified) | inconclusive: 31.6 µM [inhibitor, partial curve] |  |
| CC(C)CCNC(=O)COc1ccc2c(c1)C(=O)CC(C)(C)O2 | inconclusive: 35.5 µM [activator, single point] |  |
| CC(C)(C)C(=O)NNC(=O)c1cc2sccc2s1 | inconclusive: 1 µM [activator, full curve, poor fit] |  |
| COc1cc2c(cc1OC)-c1cc3cc(OC)c(OC)cc3c(=O)n1CC2 | inconclusive: 35.5 µM [activator, partial curve] |  |
| Cc1nc(C/C(=N\Nc2ccccc2)c2ccc(O)cc2O)cs1 | inactive |  |
| Cc1cc(N2CCC(N(C)C3CCCC3)CC2)nc2cc(O)ccc12 | inconclusive: 35.5 µM [activator, single point] |  |
| CCc1ccc(-c2cc(C(=O)NCCCn3ccnc3)c3ccccc3n2)s1 | inconclusive: 39.8 µM [activator, single point] |  |
| CCC(C)(C)n1nnnc1CN(Cc1ccco1)Cc1cc2cc3c(cc2[nH]c1=O)OCO3 | inconclusive: 28.2 µM [activator, single point] |  |
| C/C(=N\NC(=O)c1ccc(Cl)c(Cl)c1)c1ccc(Br)s1 | inactive |  |
| CCCCCOC(=O)NC1CCS(=O)(=O)C1 (stereo unspecified) | inactive |  |
| CC[C@H](C)[C@H](NC(=O)[C@H](CO)NC(=O)[C@H](CC(C)C)NC(=O)[C@@H]1CCCN1C(=O)[C@@H]1CCCN1C(=O)[C@H](CC(=O)O)NC(=O)[C@@H](N)CC(=O)O)C(=O)N[C@@H](CC(=O)O)C(=O)N[C@@H](CC(C)C)C(=O)N[C@H](C(=O)N[C@@H](Cc1ccccc1)C(=O)N[C@@H](Cc1cnc[nH]1)C(=O)N[C@@H](CC(C)C)C(=O)N[C@@H](CC(C)C)C(=O)N[C@@H](CCCNC(=N)N)C(=O)N[C@H](C(=O)N[C@@H](CC(C)C)C(=O)N[C@@H](CC(C)C)C(=O)N[C@@H](CCC(=O)O)C(=O)N[C@@H](CC(C)C)C(=O)N[C@@H](C)C(=O)N[C@@H](CCCNC(=N)N)C(=O)N[C@H](C(=O)N[C@@H](CCC(N)=O)C(=O)N[C@@H](CO)C(=O)N[C@@H](CCC(N)=O)C(=O)N[C@@H](CCCNC(=N)N)C(=O)N[C@@H](CCC(=O)O)C(=O)N[C@@H](CCCNC(=N)N)C(=O)N[C@@H](C)C(=O)N[C@@H](CCC(=O)O)C(=O)N[C@@H](CCC(N)=O)C(=O)N[C@@H](CC(N)=O)C(=O)N[C@@H](CCCNC(=N)N)C(=O)N[C@H](C(=O)N[C@H](C(=O)N[C@@H](Cc1ccccc1)C(=O)N[C@@H](CC(=O)O)C(=O)N[C@@H](CO)C(=O)N[C@H](C(N)=O)C(C)C)[C@@H](C)CC)[C@@H](C)CC)[C@@H](C)O)[C@@H](C)O)[C@@H](C)O | inactive |  |
| CC1(C)CC(=O)C(=Cc2cn(CCC#N)nc2-c2ccc(Cl)cc2)C(=O)C1 | inactive |  |
| CN(C)c1ccc(-c2cc(Nc3ccc(F)cc3)ncn2)cc1 | inconclusive: 35.5 µM [activator, single point] |  |
| CSc1nc(-c2ccccc2)nn1C(=O)c1ccco1 | inactive |  |
| CCCOc1ccc(C(=O)N/N=C/c2ccc(-c3ccc(S(=O)(=O)Nc4ncccn4)cc3)o2)cc1 | inconclusive: 44.7 µM [activator, single point] |  |
